In PMC4336329 (PLoS ONE, 2015):
In all, about 310,000 compounds went through this assay and about 2,200 (0.71%) showed an effect of 50% or more. The effect is printed as a negative number. Some of the results follow.

Biological target: human ether-à-go-go-related gene (hERG) potassium channel (human, UniProt Q12809)
Assay: primary screen, population patch clamp on CHO cells stably expressing hERG

Sequence of human ether-à-go-go-related gene (hERG) potassium channel (Q12809 whole entry, looked up): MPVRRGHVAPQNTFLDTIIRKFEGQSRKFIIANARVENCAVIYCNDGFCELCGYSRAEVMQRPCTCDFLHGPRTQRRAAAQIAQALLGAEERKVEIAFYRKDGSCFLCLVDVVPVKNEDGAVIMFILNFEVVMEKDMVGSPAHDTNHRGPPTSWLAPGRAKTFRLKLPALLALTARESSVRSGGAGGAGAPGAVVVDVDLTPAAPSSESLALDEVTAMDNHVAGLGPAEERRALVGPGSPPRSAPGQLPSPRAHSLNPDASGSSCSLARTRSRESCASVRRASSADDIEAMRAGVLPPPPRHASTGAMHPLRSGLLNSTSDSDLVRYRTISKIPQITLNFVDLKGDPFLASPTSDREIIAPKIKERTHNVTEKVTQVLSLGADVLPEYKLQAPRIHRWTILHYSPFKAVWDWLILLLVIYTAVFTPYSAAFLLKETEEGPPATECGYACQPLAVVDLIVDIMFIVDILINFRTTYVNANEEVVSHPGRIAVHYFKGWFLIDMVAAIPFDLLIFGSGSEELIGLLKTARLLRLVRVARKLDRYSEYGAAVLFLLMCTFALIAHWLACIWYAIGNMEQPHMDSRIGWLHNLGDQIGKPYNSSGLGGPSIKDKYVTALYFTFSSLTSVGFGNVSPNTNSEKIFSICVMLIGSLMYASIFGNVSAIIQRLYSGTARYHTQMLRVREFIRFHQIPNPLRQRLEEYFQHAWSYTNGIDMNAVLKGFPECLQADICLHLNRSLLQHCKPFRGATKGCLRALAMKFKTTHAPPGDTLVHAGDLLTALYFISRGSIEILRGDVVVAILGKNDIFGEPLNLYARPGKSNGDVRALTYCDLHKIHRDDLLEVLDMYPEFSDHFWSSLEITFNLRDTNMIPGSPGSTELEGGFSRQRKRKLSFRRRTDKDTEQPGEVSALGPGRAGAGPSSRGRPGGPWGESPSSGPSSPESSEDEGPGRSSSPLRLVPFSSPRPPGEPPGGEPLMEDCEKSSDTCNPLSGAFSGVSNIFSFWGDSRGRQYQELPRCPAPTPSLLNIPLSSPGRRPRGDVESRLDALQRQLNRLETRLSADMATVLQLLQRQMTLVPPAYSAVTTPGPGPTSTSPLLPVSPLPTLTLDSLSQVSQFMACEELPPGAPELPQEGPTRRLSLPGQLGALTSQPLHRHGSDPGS

Going from `C=CCC1(CC=C)CCCN1C(=O)C1CCC(=O)N(CCc2ccc(OC)cc2)C1` (centres unmarked) to `COc1ccc(C(=O)NC2CCN(C(=O)Nc3ccccc3Cl)CC2)cc1`, the “hERG current change (%, negative = inhibition) at 1uM” value rises from 0.621% to 12.9%.

First: O=C1C=C(Nc2ccc(F)cc2)c2ccccc2C1=O
Second: COc1ccccc1NS(=O)(=O)c1ccc(Cl)c(NC(=O)CN2C(=O)c3ccccc3C2=O)c1
The “hERG current change (%, negative = inhibition) at 1uM” value of the first is higher: 8.51% for the first, 4.76% for the second.

First: O=C(Cn1cnc2ccccc2c1=O)NCC(=O)N1CCN(c2ccccn2)CC1
Second: O=C(CCC1CCCN(C(=O)c2ccccc2Cl)C1)N1CCN(c2ccccn2)CC1 (centres unmarked)
The “hERG current change (%, negative = inhibition) at 1uM” value of the first is lower: 4.16% for the first, 8.95% for the second.

First: CC(C)CCN(C(=O)CNC(=O)c1cccs1)C(C(=O)NC1CCCC1)c1ccncc1 (centres unmarked)
Second: Cc1ccc(NC(=O)CS(=O)CC(=O)N(CC(=O)NC2CCCC2)c2ccc3c(c2)OCCO3)cc1 (centres unmarked)
The “hERG current change (%, negative = inhibition) at 1uM” value of the first is lower: 10.7% for the first, 17.2% for the second.

Compared with `Cn1c(CC(=O)Nc2ccc(Cl)c(Cl)c2)nnc1SCC(=O)NCc1ccccc1`, `Cn1c(CNc2nc(-c3ccccc3)cs2)nnc1SCC(=O)OC1CCCCC1` is lower in “hERG current change (%, negative = inhibition) at 1uM” value: 9.85% for the first, 3.84% for the second.

Going from `O=C(CN1CCCCCC1)NN(Cc1ccccc1)c1ccccc1.O=C(O)C(=O)O` to `CN(C(=O)c1ccccc1C(=O)OCC(=O)Nc1cccc(Br)c1)c1ccccc1`, the “hERG current change (%, negative = inhibition) at 1uM” value rises from -46.3% to -2.76%.

Going from `CCN(CC)C(=O)N1CCN(S(=O)(=O)c2ccc(C)c(C)c2)CC1` to `CC(C)(C)NC(=O)C1CCN(S(=O)(=O)c2ccc(Br)cc2)CC1`, the “hERG current change (%, negative = inhibition) at 1uM” value falls from 12.8% to 6.58%.

First: Cn1cc(CCC(=O)NCc2ccc3c(c2)OCO3)c2ccccc21
Second: O=C(O)c1cc(-c2ccc3c(c2)OCO3)nc2ccccc12
The “hERG current change (%, negative = inhibition) at 1uM” value of the first is lower: 1.24% for the first, 2.4% for the second.

Compared with `CC(C)C(C)NC(=O)COc1ncnc2sccc12` (centres unmarked), `O=C(Nc1nccs1)c1ccc(COc2c(F)c(F)cc(F)c2F)cc1` is higher in “hERG current change (%, negative = inhibition) at 1uM” value: 11.8% for the first, 18.9% for the second.

First: CCOc1ccc(S(=O)(=O)N(C)CC(=O)NCc2ccccn2)cc1Cl
Second: CCN(CC)S(=O)(=O)c1ccc(C(=O)NCc2cccs2)cc1
The “hERG current change (%, negative = inhibition) at 1uM” value of the first is lower: 1.65% for the first, 3.64% for the second.

First: COc1ccc(S(=O)(=O)Oc2c(OC)cc(C(=S)N3CCOCC3)cc2OC)cc1
Second: CCN(CC)S(=O)(=O)c1ccc(N2CCOCC2)c(NC(=O)C(C)Oc2ccc(F)cc2)c1 (centres unmarked)
The “hERG current change (%, negative = inhibition) at 1uM” value of the first is lower: 10.6% for the first, 14.5% for the second.

Going from `Cc1ccc2[nH]cc(C(=O)CCl)c2c1` to `Cc1cc(Cl)nc2c(C(C)C)cccc12`, the “hERG current change (%, negative = inhibition) at 1uM” value falls from 15.2% to 13.1%.

Compared with `Cc1cc(C)c2c(n1)SCC(=O)N2CC(=O)NCCC1=CCCCC1`, `Cc1cc(CNC(=O)Cn2nc(C)c([N+](=O)[O-])c2C)c2ccccc2n1` is lower in “hERG current change (%, negative = inhibition) at 1uM” value: 12.5% for the first, 8.44% for the second.

Compared with `CCOC(=O)c1c(C)oc2ccc(OCc3cc(C(=O)OC)oc3C)cc12`, `COC(=O)c1cc2occc2n1CC(=O)Nc1ccc(C)cc1C` is higher in “hERG current change (%, negative = inhibition) at 1uM” value: 3.07% for the first, 16% for the second.

Going from `CCc1nc(NC(=O)NS(=O)(=O)c2ccccc2C(=O)OC)nc(OC)n1` to `CC(=O)c1ccccc1NS(C)(=O)=O`, the “hERG current change (%, negative = inhibition) at 1uM” value falls from 14.4% to 9.61%.

Compared with `O=C(Nc1nnc(C2CCCO2)s1)c1ccc(Br)cc1` (centres unmarked), `CCCCC(=O)Nc1nnc(SCC(=O)NCC2CCCO2)s1` (centres unmarked) is higher in “hERG current change (%, negative = inhibition) at 1uM” value: -4.36% for the first, 3.49% for the second.

Compared with `CCCCCOC(=O)C1[C@H]2C(=O)N(c3ccccc3CC)C[C@]23C=C[C@H]1O3` (some centres unmarked), `CCCCOc1ccc(CC(=O)NO)cc1` is higher in “hERG current change (%, negative = inhibition) at 1uM” value: 7.85% for the first, 15.9% for the second.

First: FC(F)(F)Oc1ccc(NC(=S)NCc2ccccc2)cc1
Second: O=C(Nc1ccccc1)N1CCC(=S)Nc2ccccc21
The “hERG current change (%, negative = inhibition) at 1uM” value of the first is lower: 4.98% for the first, 7.14% for the second.

First: O=C(Nc1ccc(C(=O)N2CCC(O)(c3ccc(Cl)c(C(F)(F)F)c3)CC2)cc1)c1ccc(Br)o1
Second: CCOC(=O)c1ccc(NC(=O)C2CC(=O)N=C(N)S2)cc1 (centres unmarked)
The “hERG current change (%, negative = inhibition) at 1uM” value of the first is higher: 14.3% for the first, 10.3% for the second.

Going from `COc1ccccc1/C=C/C(=O)OCC(=O)Nc1ccc2c(c1)OCCO2` to `COc1ccc(-c2nn(-c3ccccc3)cc2/C=C/C(=O)OCC(=O)Nc2ccccc2C#N)cc1`, the “hERG current change (%, negative = inhibition) at 1uM” value falls from 9.66% to 8.03%.

Going from `COC(=O)c1ccc(C(NC(=O)OCc2ccccc2)/C(C)=C/[C@@H](C)C(=O)NCc2ccc(OC)c(OC)c2)cc1` (some centres unmarked) to `COC(=O)[C@H](Cc1ccccc1)NC(=O)[C@@]1(C)C[C@@H]1[C@@H](NC(=O)OCc1ccccc1)c1ccccc1`, the “hERG current change (%, negative = inhibition) at 1uM” value falls from 4.01% to -3.09%.

Going from `COc1ccc(-c2nc(C#N)c(NCCCn3ccnc3)o2)cc1OC` to `COc1ccc(/C=C2\SC(=O)N(CC(=O)NNC(=O)c3ccccc3O)C2=O)cc1OC`, the “hERG current change (%, negative = inhibition) at 1uM” value falls from 4.48% to -3.05%.

First: O=C(c1cccs1)N1CCC2(O)CCCCC2C1c1ccc(F)cc1 (centres unmarked)
Second: CCN1CCN(C(c2cccs2)C(C)NC(=O)c2ccccc2F)CC1 (centres unmarked)
The “hERG current change (%, negative = inhibition) at 1uM” value of the first is higher: 11.4% for the first, 2.9% for the second.

First: CNC(=O)CN(c1ccc(OC)cc1)S(=O)(=O)c1ccc(F)cc1
Second: CCOC(=O)CC(NC(=O)Cn1nnc(-c2ccccc2F)n1)c1ccc(OC)cc1 (centres unmarked)
The “hERG current change (%, negative = inhibition) at 1uM” value of the first is lower: 3.91% for the first, 13.4% for the second.

Going from `COc1ccc(CN2CCN(C(=O)C3CCC(CNS(=O)(=O)c4ccccc4)CC3)CC2)c(OC)c1OC` (centres unmarked) to `O=C(NC(=S)N1CCN(C/C=C/c2ccccc2)CC1)c1ccco1`, the “hERG current change (%, negative = inhibition) at 1uM” value rises from 1.84% to 4.12%.

Compared with `O=C(C1CCN(c2nnc(-n3cccc3)s2)CC1)N1CCc2ccccc2C1`, `OC1CCN(C(=S)NCCc2ccccc2)CC1` is higher in “hERG current change (%, negative = inhibition) at 1uM” value: -44.7% for the first, 8.88% for the second.

Going from `Cc1csc(NC(=O)CCn2c(=O)oc3ccc(Cl)cc32)n1` to `O=C(Cc1csc(Nc2nc(=S)[nH]c3ccccc23)n1)NCc1ccc(Cl)cc1`, the “hERG current change (%, negative = inhibition) at 1uM” value falls from 11.7% to -0.883%.

First: O=C(O)CCCNS(=O)(=O)/C=C/c1ccccc1
Second: Cc1ccc(S(=O)(=O)N(C)C)cc1NC(=O)COC(=O)CN1C(=O)c2ccccc2C1=O
The “hERG current change (%, negative = inhibition) at 1uM” value of the first is lower: 8.46% for the first, 14.6% for the second.

First: Cc1cc(NC(=O)CSc2nccn2-c2ccc([N+](=O)[O-])cc2)no1
Second: CCn1c(SC(C)C(=O)Nc2ccc(N3CCOCC3)cc2)nnc1-c1ccco1 (centres unmarked)
The “hERG current change (%, negative = inhibition) at 1uM” value of the first is lower: 4.49% for the first, 5.78% for the second.

Compared with `NCCS(=O)(=O)O`, `CCOC(=O)C1=C(CSc2nc3ccccc3s2)NC(=O)NC1c1cccc([N+](=O)[O-])c1` (centres unmarked) is lower in “hERG current change (%, negative = inhibition) at 1uM” value: 31.2% for the first, 8.74% for the second.

Compared with `CCCN(CC(=O)Nc1ccccc1OC)C(=O)CSc1ccc(Br)cc1C`, `CCOc1ccccc1NC(=O)/C(C#N)=C/c1c(C)nn(-c2ccc(F)cc2)c1Cl` is lower in “hERG current change (%, negative = inhibition) at 1uM” value: 3.26% for the first, 2.45% for the second.

Going from `CC(C)(O[C@@H]1O[C@H](CO)[C@@H](O)[C@H](O)[C@H]1O)[C@H]1Cc2cc3ccc(=O)oc3cc2O1` to `Nc1cc(N)nc(SCc2cc(=O)oc3cc4c(cc23)CCC4)n1`, the “hERG current change (%, negative = inhibition) at 1uM” value rises from 9.36% to 11.2%.

First: CCC(C(=O)N1CCN(c2ccccn2)CC1)n1nc(C)n2c(cc3occc32)c1=O (centres unmarked)
Second: CCOC(=O)N1CCN(c2ccc(N3C(=O)CCCC3=O)cc2[N+](=O)[O-])CC1
The “hERG current change (%, negative = inhibition) at 1uM” value of the first is lower: 8.44% for the first, 23.4% for the second.

Going from `COC(=O)c1sccc1NC(=S)N1CCCCC1C` (centres unmarked) to `CC1CCCCN1C(=O)/C=C/c1ccccc1[N+](=O)[O-]` (centres unmarked), the “hERG current change (%, negative = inhibition) at 1uM” value falls from 20.5% to -3.02%.

First: CC(C)CNP(=S)(c1ccccc1)C(C)(C)C (centres unmarked)
Second: CCNc1nc(NC(C)C)nc(SCCOc2ccc(C)cc2)n1
The “hERG current change (%, negative = inhibition) at 1uM” value of the first is higher: 5.6% for the first, 2.7% for the second.

First: Cc1ccc(CN2CCN(Cc3ccncc3)CC2CCO)o1 (centres unmarked)
Second: CC(C)N(C(=O)N1CCC(c2nc(-c3ccncc3)no2)CC1)C(C)C
The “hERG current change (%, negative = inhibition) at 1uM” value of the first is higher: -1.98% for the first, -6.46% for the second.

First: CC1CCN(C(=O)CC#N)CC1
Second: CCOc1ccc(OCC(=O)Nc2ccccc2N2CCCC2)cc1
The “hERG current change (%, negative = inhibition) at 1uM” value of the first is lower: 12.4% for the first, 15.4% for the second.

Compared with `COc1cccc(CNC(=O)COc2cccc(-n3cnnn3)c2)c1`, `COC(=O)COc1cccc(NC(=O)c2cccc(C)c2)c1` is higher in “hERG current change (%, negative = inhibition) at 1uM” value: -4.51% for the first, 5.31% for the second.

Going from `COC(=O)C1=NNC2(c3ccc(C)cc3)C(=O)N(c3cccc(C)c3C)C(=O)C12` (centres unmarked) to `Cc1nn(CCC(=O)NCc2ccc(N(C)C)cc2)c(=O)c2nn(-c3ccccc3)c(C)c12`, the “hERG current change (%, negative = inhibition) at 1uM” value rises from 5.64% to 13.7%.

First: CC(=O)Nc1cc(NC(C)=O)cc(-c2nc3ccccc3[nH]2)c1
Second: Cc1ccc(-n2c(SCC(=O)Nc3cccc(S(=O)(=O)NC4=NCCCCC4)c3)nc3ccccc3c2=O)cc1C
The “hERG current change (%, negative = inhibition) at 1uM” value of the first is lower: 10.7% for the first, 13.6% for the second.

Going from `CC(C)NC(=S)NNC(=O)C12CC3CC(CC(C3)C1)C2` to `CN(C(=S)NC1CCCCC1)C1(c2ccccc2Cl)CCCCC1=O` (centres unmarked), the “hERG current change (%, negative = inhibition) at 1uM” value falls from 0.571% to -5.81%.

Going from `COc1ccc(Nc2nnc(SC(C(=O)Nc3ccc(OC)c(Cl)c3)c3ccccc3)s2)cc1` (centres unmarked) to `O=P(O)(O)Oc1ccccc1P(=O)(c1ccccc1)c1ccccc1`, the “hERG current change (%, negative = inhibition) at 1uM” value rises from 13.4% to 20.8%.

Going from `Cn1c(=O)c2c(SCC(=O)c3ccccc3)nc(C3CC3)nc2n(C)c1=O` to `Cc1ccsc1/C=N/N1CCN(C2c3ccccc3-c3ccccc32)CC1`, the “hERG current change (%, negative = inhibition) at 1uM” value rises from 7.75% to 13.9%.
